The antibiotic and cytotoxicity screens of Wong et al. (2023)
The other results are listed elsewhere or left out.

Tests used:
HSkMC = human skeletal muscle cells; experiment: cytotoxicity call (relative viability < 0.9); conditions: 10 µM
HepG2 = experiment: cytotoxicity call (relative viability < 0.9); conditions: 10 µM
S. aureus RN4220 = experiment: growth inhibition call (relative growth <= 0.2); conditions: 50 µM

| SMILES | cytotoxicity call (HSkMC) | cytotoxicity call (HepG2) | growth inhibition call (S. aureus RN4220) |
| --- | --- | --- | --- |
| C[C@H]1CCCCO[C@H](CN(C)C(=O)Nc2ccc(F)cc2)[C@@H](C)CN([C@@H](C)CO)C(=O)c2cc(NC(=O)c3ccccc3)ccc2O1 | inactive | inactive | inactive |
| COCCNC(=O)C[C@H]1CC[C@@H]2[C@H](COC[C@@H](O)CN2S(=O)(=O)c2ccccc2C)O1 | inactive | inactive | inactive |
| O=[N+]([O-])c1ccc(/C=C/CN(C/C=C/c2ccc([N+](=O)[O-])cc2)CCCCNS(=O)(=O)c2cccc3cnccc23)cc1 | inactive | inactive | inactive |
| Cc1noc(C)c1S(=O)(=O)N(C)C[C@H]1Oc2ccc(NC(=O)Nc3ccccc3)cc2CC(=O)N([C@@H](C)CO)C[C@@H]1C | inactive | inactive | inactive |
| C[C@H](CO)N1C[C@H](C)[C@H](CN(C)C(=O)CN(C)C)Oc2cc(C#CC(C)(C)O)ccc2S1(=O)=O | inactive | inactive | inactive |
| C[C@H]1CCCCO[C@H](CN(C)C(=O)Nc2ccc(F)cc2)[C@@H](C)CN([C@@H](C)CO)C(=O)c2cc(NC(=O)Nc3ccc4c(c3)OCO4)ccc2O1 | inactive | inactive | inactive |
| C[C@H](CO)N1C[C@H](C)[C@@H](CN(C)S(=O)(=O)c2cccs2)Oc2c(NS(=O)(=O)c3cn(C)cn3)cccc2C1=O | inactive | inactive | inactive |
| COc1ccccc1CN1C(=O)c2ccccc2[C@](Cc2ccccc2I)(C(=O)NCC(C)C)[C@@H]1c1ccc(CO)cc1 | inactive | inactive | inactive |
| C[C@H]1CN([C@@H](C)CO)C(=O)c2cccc(NS(=O)(=O)c3ccccc3)c2O[C@@H]1CN(C)CC1CC1 | inactive | inactive | inactive |
| c1cnc(-c2cc[nH]n2)cn1 | inactive | inactive | inactive |
| C[C@H](CO)N1C[C@H](C)[C@@H](CN(C)Cc2ccc(C(F)(F)F)cc2)Oc2ccc(NC(=O)Nc3ccc(F)cc3)cc2CC1=O | active | active | inactive |
| NC(=O)c1ncn([C@H]2O[C@@H](COP(=O)(O)O)[C@@H](O)[C@@H]2O)c1N | inactive | inactive | inactive |
| COc1ccc(NC(=O)Nc2ccc3c(c2)C(=O)N([C@H](C)CO)C[C@H](C)[C@@H](CN(C)C(=O)Nc2c(C)noc2C)OCCCC[C@H](C)O3)cc1 | inactive | inactive | inactive |
| CO[C@H](CN(C)C(=O)c1ccc2c(c1)OCO2)[C@H](C)CN([C@@H](C)CO)S(=O)(=O)c1ccc(C)cc1 | inactive | inactive | inactive |
| COc1ccc(NC(=O)N(C)C[C@@H]2OCCCC[C@@H](C)Oc3ccc(NC(=O)Cc4ccccc4)cc3C(=O)N([C@H](C)CO)C[C@H]2C)cc1 | inactive | inactive | inactive |
| CC(C)NC(=O)N(C)C[C@@H]1Oc2c(NC(=O)C3CCOCC3)cccc2C(=O)N([C@H](C)CO)C[C@@H]1C | inactive | inactive | inactive |
| C[C@H]1CCCCO[C@H](CN(C)C(=O)c2ccncc2)[C@@H](C)CN([C@@H](C)CO)C(=O)c2cc(NS(C)(=O)=O)ccc2O1 | inactive | inactive | inactive |
| C[C@@H]1CN([C@H](C)CO)C(=O)CCCn2cc(nn2)CO[C@@H]1CN(C)S(C)(=O)=O | inactive | inactive | inactive |
| Nc1nonc1C(=O)OCC(=O)c1ccccc1 | inactive | inactive | inactive |
| C[C@@H]1CN([C@@H](C)CO)C(=O)Cc2cc(NS(=O)(=O)c3ccccc3)ccc2O[C@@H]1CN(C)Cc1ccc(Cl)c(Cl)c1 | active | active | inactive |
| COC(=O)[C@H](Cc1ccc(-n2cc(CCC(=O)NO)nn2)cc1)N[C@H](/C=C/C1CC1)[C@@H](O)Cc1ccccc1 | inactive | inactive | inactive |
| O=C(C[C@@H]1CC[C@@H]2[C@H](COC[C@H](O)CN2C(=O)Nc2cccc(Cl)c2)O1)NCCCN1CCOCC1 | inactive | inactive | active |
| NCC[C@@H]1CC[C@H](NC(=O)c2ccccc2F)[C@@H](CO)O1 | inactive | inactive | inactive |
| O=S1(=O)CCCCN1 | inactive | inactive | inactive |
| C[C@@H]1CN([C@H](C)CO)C(=O)c2cc(C#CCc3ccccc3)cnc2O[C@@H]1CN(C)C(=O)C1CCOCC1 | inactive | inactive | inactive |
| COc1ccc(NC(=O)Nc2ccc3c(c2)CC(=O)N([C@H](C)CO)C[C@@H](C)[C@H](CN(C)Cc2ccc(C(F)(F)F)cc2)O3)cc1 | inactive | inactive | inactive |
